We go through 167 variants from the RNAGym collection of RNA variant scans (doi:10.7554/elife.90254).

First the molecules themselves.
B1: LINE1-mini (parent)
chain: GGCAGAGCUCAACACAGCGUGGCAAAGUGGCUGUGGCUAGACUGCC

Read counts are not given, so values of variants with three or more changes are uncertain.

Variants of B1 are the subject of the series. The experiment in a line: self-cleavage, relative activity (ratio to wild type); higher = more cleavage; in vitro, sequencing; the parent is a self-cleaving ribozyme.
Regarding G7A G21U U32A U38A G44C, the self-cleavage amounted to 0.05.

On to G7A C23G G40U, for which the self-cleavage was found to be 0.16.

As for G7C A11C G22U C42A, the self-cleavage was found to be 0.02.

With G7A G17A C23A A24C A26G A41U, the self-cleavage is 0.04.

As for G7C A12C U20G G33C, the self-cleavage amounted to 0.01.

With G7A U9A C15G U20C G29A, the self-cleavage is 0.15.

For the variant G7C C8A G17U A24C G30A A41U, the self-cleavage was 0.15.

Regarding G7C A16G A26C G44U, the self-cleavage came to 0.07.

Regarding G7A C18A A26G C46A, the self-cleavage came out at 0.06.

As to G7A G21U U32A, the self-cleavage is 0.14.

On to G7C A11U G30U C46U, for which the self-cleavage turned out to be 0.04.

G7A C15U G27A: the self-cleavage stood at 0.9.

As to G7A U34C A39G C42A, the self-cleavage came out at 0.03.

For G7A C10U G19C C42A, the self-cleavage was 0.01.

G7C A11U C13G G36U U38C: the self-cleavage amounted to 0.02.

Take G7A U9G C15A: the self-cleavage is 0.01.

Turning to G7C A12U G22C G35A, the self-cleavage was 0.18.

As for G7A C13U C15A U32C C45U, the self-cleavage worked out at 0.04.

In the case of G7A C18A G35U U43A, the self-cleavage came to 0.27.

On to G7A C13G U20A G36A, for which the self-cleavage amounted to 0.2.

Consider G7A G19U C45U, for which the self-cleavage turned out to be 0.13.

With G7A C13A A25C G29U, the self-cleavage is 0.18.

For the variant G7A C10U C13U G19U, the self-cleavage turned out to be 0.13.

As for G7C A16C G35U, the self-cleavage was found to be 0.03.

As for G7A G21U C37A U38A G40C, the self-cleavage amounted to 0.23.

In the case of G7C A14G G30U U43C, the self-cleavage turned out to be 0.07.

As to G7C A11G G30A, the self-cleavage came out at 0.02.

As for G7A C8U G17A G22U, the self-cleavage came to 0.29.

On to G7A G22C A26U C37G A39G, for which the self-cleavage was determined as 0.01.

For G7C A11C G33U, the self-cleavage came to 0.01.

For the variant G7C A14C A16C G30U, the self-cleavage is 0.11.

G7A U20G C23G: the self-cleavage was 0.28.

Consider G7C C8A C46U, for which the self-cleavage was found to be 0.18.

G7A C31A A41G: the self-cleavage is 0.

Regarding G7A G29A G40C, the self-cleavage amounted to 0.16.

Turning to G7A C18U G22A U32C C37A, the self-cleavage worked out at 0.05.

With G7C A25C G30U G36A, the self-cleavage worked out at 0.05.

Take G7A C23U A39U C45A: the self-cleavage stood at 0.07.

In the case of G7C A16G A41G, the self-cleavage was determined as 0.01.

In the case of G7A C8U U28G, the self-cleavage was determined as 0.99.

Take G7A G22A A24C: the self-cleavage came to 0.15.

In the case of G7A C31U C42G, the self-cleavage amounted to 0.06.

For G7A U32C C46A, the self-cleavage stood at 0.15.

For G7A G17C G21C C23G A25C, the self-cleavage stood at 0.18.

As to G7A G21A C46G, the self-cleavage came out at 0.11.

For G7A G36U U43A, the self-cleavage worked out at 0.4.

Take G7A G21A U34A: the self-cleavage amounted to 0.03.

As to G7A G27C U32G, the self-cleavage was 0.06.

As for G7A U9C G21U, the self-cleavage worked out at 0.14.

On to G7C A11U A16U G33A G44U, for which the self-cleavage turned out to be 0.01.

In the case of G7C A16G G36U, the self-cleavage was 0.1.

For G7A U20G G22A G40A, the self-cleavage worked out at 0.06.

In the case of G7A U34G U43C G44C, the self-cleavage turned out to be 0.01.

Turning to G7A G19U A26C, the self-cleavage is 0.05.

As to G7A C15G C31G C42U C46A, the self-cleavage was determined as 0.05.

In the case of G7C A14G G35U G40U, the self-cleavage turned out to be 0.11.

For the variant G7C A14C C23U C37U, the self-cleavage was 0.01.

G7A G29A G44A: the self-cleavage was found to be 0.07.

As for G7A U9G G30A A41G G44A, the self-cleavage is 0.04.

Take G7C C8A A16G A26U G36U U38A: the self-cleavage was determined as 0.4.

Consider G7C A26C C31G U32C C37A, for which the self-cleavage turned out to be 0.01.

Turning to G7A U9A A12U A14U C37U, the self-cleavage amounted to 0.02.

Take G7A C18U U38C C42G: the self-cleavage was 0.02.

With G7A C13U G19U G27C G36C C42G, the self-cleavage was found to be 0.07.

Regarding G7A G22A G44U, the self-cleavage was 0.16.

In the case of G7A G22A G44A, the self-cleavage is 0.28.

Turning to G7A U9G A41U U43A, the self-cleavage was found to be 0.08.

As to G7A C13U A16C C18G, the self-cleavage stood at 0.04.

For G7A G17A U38G, the self-cleavage stood at 0.01.

Consider G7A G22A C31G G33A, for which the self-cleavage was 0.13.

For the variant G7A U20A G27U G30A G36U, the self-cleavage came to 0.07.

As for G7A C8G U9G C15U G27C G29C, the self-cleavage stood at 0.01.

As for G7A U32C G40A, the self-cleavage turned out to be 0.06.

In the case of G7A G21C A24G G35C G40A U43G, the self-cleavage worked out at 0.07.

Regarding G7A C13A A41C, the self-cleavage is 0.13.

With G7C A26G U32C A39U G40A, the self-cleavage came to 0.15.

For the variant G7A G36C A39G, the self-cleavage is 0.02.

As for G7A C10A A14U C37G, the self-cleavage is 0.

For the variant G7A G22U C31U, the self-cleavage was determined as 0.28.

Take G7A G21U U28G C45A: the self-cleavage turned out to be 0.1.

In the case of G7A C15U G27U G44U, the self-cleavage was determined as 1.07.

Take G7A U9G A16U C18G G30A: the self-cleavage is 0.08.

With G7A C10A G33C, the self-cleavage came to 0.04.

In the case of G7C A11U G29C, the self-cleavage was 0.02.

Consider G7A U9G G40U, for which the self-cleavage was determined as 0.05.

On to G7C A12C C18A G30C, for which the self-cleavage amounted to 0.03.

As to G7A C13A U28C U32C U43C, the self-cleavage was determined as 0.15.

For G7A G30C U38G, the self-cleavage was 0.03.

For the variant G7A G30C C37A A39C, the self-cleavage is 0.03.

With G7A G40C U43C C45A, the self-cleavage came to 0.05.

As to G7A C10A G27U C46G, the self-cleavage was determined as 0.01.

In the case of G7A G22U G27C, the self-cleavage turned out to be 0.09.

Turning to G7A G22U G27U, the self-cleavage is 0.07.

Take G7A C13U A14U C31U: the self-cleavage is 0.27.

G7C A16U G17A G22C C23U U38G: the self-cleavage was 0.02.

On to G7A U32A G35A, for which the self-cleavage was determined as 0.19.

For the variant G7A C13U A26G, the self-cleavage was determined as 1.03.

In the case of G7A U9G G19C G21C, the self-cleavage came to 0.02.

Turning to G7C A24G U32C U34C A39U, the self-cleavage came to 0.06.

As for G7A C18U U43A, the self-cleavage is 0.12.

Take G7C A14U G36C G40C: the self-cleavage was found to be 0.13.

As for G7A C10G A16G A25G C37A, the self-cleavage turned out to be 0.01.

In the case of G7A C10U A16G, the self-cleavage was determined as 0.17.

With G7A C15A C37U C46U, the self-cleavage was 0.04.

As for G7A C18A G27U G40A, the self-cleavage came out at 0.09.

As to G7A C8A G35C, the self-cleavage was 0.25.

Regarding G7A G17C C37A C45A, the self-cleavage is 0.11.

G7A C15A U34A U43C: the self-cleavage worked out at 0.24.

With G7C C8A C13U U32A, the self-cleavage was 0.08.

Turning to G7A G21U C37A, the self-cleavage is 0.02.

As for G7A C23A U28G, the self-cleavage was 0.03.

With G7A G22A C45U C46U, the self-cleavage stood at 0.17.

As for G7A C23G G27C, the self-cleavage amounted to 0.

G7A G35C U43C: the self-cleavage was 0.33.

On to G7A C15U U20C G40A G44U, for which the self-cleavage was found to be 0.06.

For G7C A25U G30C G36C C37U, the self-cleavage was 0.06.

As to G7A C10A A39U, the self-cleavage amounted to 0.02.

Take G7A C8G A12G G17C A25U C46U: the self-cleavage was found to be 0.01.

Regarding G7A C10U G27C G29A C37G, the self-cleavage is 0.04.

As for G7A C10U C18A C23G C37U, the self-cleavage was 0.01.

Take G7A C15U U20A G27U U28G G40U: the self-cleavage worked out at 0.25.

With G7A G17U A41U, the self-cleavage came out at 0.09.

On to G7C A14C U32C U43C C45G, for which the self-cleavage was determined as 0.03.

In the case of G7A G19A C45A, the self-cleavage was 0.21.

Regarding G7C A26G G29A G40U, the self-cleavage is 0.1.

With G7C A11C C18A G36U U38G C42G, the self-cleavage was 0.

Turning to G7A C18U G36C, the self-cleavage amounted to 0.12.

With G7A C13A G19U G30A, the self-cleavage was 0.65.

Take G7C A14G A25G U28A C31A G36U: the self-cleavage was found to be 0.

For the variant G7A C10A G22U G30U, the self-cleavage is 0.01.

In the case of G7A C10A A11C C18U C23U G44U C45A, the self-cleavage was 0.01.

In the case of G7C A39U G40A, the self-cleavage was found to be 0.53.

As to G7C A12G A39G, the self-cleavage stood at 0.14.

As to G7A C8U G19C A26U, the self-cleavage came out at 0.02.

Turning to G7C A16U G22A U38A G44C, the self-cleavage was found to be 0.02.

Consider G7C A26G C37U, for which the self-cleavage came out at 0.12.

With G7A U20A A41U, the self-cleavage was 0.11.

For G7A U9C G19C, the self-cleavage was determined as 0.02.

For G7A U9C G19A, the self-cleavage is 0.

G7A C8A G19A U20C A39C: the self-cleavage stood at 0.03.

As for G7A C10U C13G, the self-cleavage stood at 0.04.

In the case of G7C A12C C23A, the self-cleavage was 0.03.

For the variant G7A C15U U20C U43A, the self-cleavage came out at 0.08.

As for G7C A11G A12G G40A, the self-cleavage was 0.02.

On to G7A C42G C45G, for which the self-cleavage came to 0.04.

For G7A C8U U20G, the self-cleavage was 0.15.

G7A C8U G17C G19A A25G G27U G29U G33U: the self-cleavage stood at 0.04.

Turning to G7A U32C U38G G40A, the self-cleavage worked out at 0.01.

For the variant G7C A16G U32C G35U, the self-cleavage is 0.06.

With G7A G21C G35U A41U, the self-cleavage is 0.13.

For G7C A12C A26G, the self-cleavage worked out at 0.02.

Turning to G7C A16G G19U G29A C31A, the self-cleavage worked out at 0.06.

With G7C A16U G44U, the self-cleavage is 0.02.

Consider G7A C8A G17C U32C, for which the self-cleavage turned out to be 0.01.

For the variant G7A G17A A25U A26C A39G G44C, the self-cleavage worked out at 0.05.

Consider G7A C10A A11C C45G, for which the self-cleavage was found to be 0.03.

On to G7A G22C G33C C37G, for which the self-cleavage worked out at 0.06.

G7A G29A C31G: the self-cleavage was determined as 0.03.

Take G7A G27A U34C C45G: the self-cleavage is 0.05.

In the case of G7A C13A G19U G30A G33U, the self-cleavage stood at 0.11.

For G7A G29C U43C C46A, the self-cleavage turned out to be 0.07.

Turning to G7A C8A U9A, the self-cleavage was 0.27.

On to G7A C15U U28G G29C, for which the self-cleavage is 0.07.

Consider G7A U9C G17A G22U A26C, for which the self-cleavage stood at 0.06.

G7C A11G G40A G44U: the self-cleavage amounted to 0.

Consider G7A C15A G22U A24C G30C, for which the self-cleavage was determined as 0.03.

For G7C A16C U20A G27A G35U, the self-cleavage came to 0.02.
